Molecular target: isolated recombinant JAK1 kinase domain (Homo sapiens (Human), UniProt P23458)
Details: read-out: JAK1 Ki; isolated recombinant JAK1 kinase domain, 25 μM ATP

Question: How did the Ki turn out when `CCOC(=O)N1CC=C(c2cccn3nc(Nc4ccc(C(=O)N5CC6CNCC(C5)O6)cc4)nc23)CC1` [Example 2-180, ethyl 4-[2-[4-(9-oxa-3,7-diazabicyclo[3.3.1]nonane-3-carbonyl)anilino]-[1,2,4]triazolo[1,5-a]pyridin-8-yl]-3,6-dihydro-2H-pyridine-1-carboxylate] was run?
Answer: 5.56 nM

Question: With `CCOC(=O)N1CC=C(c2cccn3nc(Nc4ccc(C(=O)N5CCC6(CCNCC6)CC5)cc4)nc23)CC1` [Example 2-181, ethyl 4-[2-[4-(3,9-diazaspiro[5.5]undecane-3-carbonyl)anilino]-[1,2,4]triazolo[1,5-a]pyridin-8-yl]-3,6-dihydro-2H-pyridine-1-carboxylate] as the molecule, how does the Ki read?
Answer: 2.74 nM

Question: How did the Ki turn out when `CCOC(=O)N1CC=C(c2cccn3nc(Nc4ccc(C(=O)N5CCCC6(CCCN6)CC5)cc4)nc23)CC1` (stereo not drawn) [Example 2-182, ethyl 4-[2-[4-(1,9-diazaspiro[4.6]undecane-9-carbonyl)anilino]-[1,2,4]triazolo[1,5-a]pyridin-8-yl]-3,6-dihydro-2H-pyridine-1-carboxylate] was run?
Answer: 3.2 nM

Question: For `CCOC(=O)N1CC=C(c2cccn3nc(Nc4ccc(C(=O)N5CCC6(CCCN6)CC5)cc4)nc23)CC1` [Example 2-183, ethyl 4-[2-[4-(1,8-diazaspiro[4,5]decane-8-carbonyl)anilino]-[1,2,4]triazolo[1,5-a]pyridin-8-yl]-3,6-dihydro-2H-pyridine-1-carboxylate], which Ki is on record?
Answer: 3.35 nM

Question: `CCOC(=O)N1CC=C(c2cccn3nc(Nc4ccc(C(=O)N5CCC6(CC5)CNC6)cc4)nc23)CC1` [Example 2-184, ethyl 4-[2-[4-(2,7-diazaspiro[3.5]nonane-7-carbonyl)anilino]-[1,2,4]triazolo[1,5-a]pyridin-8-yl]-3,6-dihydro-2H-pyridine-1-carboxylate] was tested. Which Ki did it give?
Answer: 3.51 nM

Question: Which Ki does the source give for `O=C(CCC(F)(F)F)N1CC=C(c2cccn3nc(Nc4ccc(C(=O)N5CC6(CCCNC6)C5)cc4)nc23)CC1` [Example 2-186, 1-[4-[2-[4-(2,8-diazaspiro[3.5]nonane-2-carbonyl)anilino]-[1,2,4]triazolo[1,5-a]pyridin-8-yl]-3,6-dihydro-2H-pyridin-1-yl]-4,4,4-trifluoro-butan-1-one] here?
Answer: 1.35 nM

Question: `O=C(CCC(F)(F)F)N1CC=C(c2cccn3nc(Nc4ccc(C(=O)N5CCC6(CCNCC6)C5)cc4)nc23)CC1` [Example 2-187, 1-[4-[2-[4-(2,8-diazaspiro[4.5]decane-2-carbonyl)anilino]-[1,2,4]triazolo[1,5-a]pyridin-8-yl]-3,6-dihydro-2H-pyridin-1-yl]-4,4,4-trifluoro-butan-1-one] was tested. Which Ki did it give?
Answer: 1.6 nM

Question: `O=C(NC1COC2(CCNCC2)C1)c1ccc(Nc2nc3c(C4=CCN(C(=O)CCC(F)(F)F)CC4)cccn3n2)cc1` (stereo not drawn) [Example 2-188, N-(1-oxa-8-azaspiro[4.5]decan-3-yl)-4-[[8-[1-(4,4,4-trifluorobutanoyl)-3,6-dihydro-2H-pyridin-4-yl]-[1,2,4]triazolo[1,5-a]pyridin-2-yl]amino]benzamide] was tested. Which Ki did it give?
Answer: 0.68 nM

Question: `O=C(NCC1CCC2(CCNCC2)CO1)c1ccc(Nc2nc3c(C4=CCN(C(=O)CCC(F)(F)F)CC4)cccn3n2)cc1` (stereo not drawn) [Example 2-189, N-(2-oxa-9-azaspiro[5.5]undecan-3-ylmethyl)-4-[[8-[1-(4,4,4-trifluorobutanoyl)-3,6-dihydro-2H-pyridin-4-yl]-[1,2,4]triazolo[1,5-a]pyridin-2-yl]amino]benzamide] was tested. Which Ki did it give?
Answer: 0.88 nM

Question: `O=C(CCC(F)(F)F)N1CC=C(c2cccn3nc(Nc4ccc(C(=O)N5CCCC6(CNCCO6)C5)cc4)nc23)CC1` (stereo not drawn) [Example 2-190, 4,4,4-trifluoro-1-[4-[2-[4-(1-oxa-4,8-diazaspiro[5.5]undecane-8-carbonyl)anilino]-[1,2,4]triazolo[1,5-a]pyridin-8-yl]-3,6-dihydro-2H-pyridin-1-yl]butan-1-one] was tested. Which Ki did it give?
Answer: 1.76 nM

Question: With `O=C(CCC(F)(F)F)N1CC=C(c2cccn3nc(Nc4ccc(C(=O)N5CCC6(CCCNC6)CC5)cc4)nc23)CC1` [Example 2-191, 1-[4-[2-[4-(2,9-diazaspiro[5.5]undecane-9-carbonyl)anilino]-[1,2,4]triazolo[1,5-a]pyridin-8-yl]-3,6-dihydro-2H-pyridin-1-yl]-4,4,4-trifluoro-butan-1-one] as the molecule, how does the Ki read?
Answer: 1.33 nM

Question: For `O=C(NCC1CCCNC1)c1ccc(Nc2nc3c(C4=CCN(C(=O)CCC(F)(F)F)CC4)cccn3n2)cc1` (stereo not drawn) [Example 2-192, N-(3-piperidylmethyl)-4-[[8-[1-(4,4,4-trifluorobutanoyl)-3,6-dihydro-2H-pyridin-4-yl]-[1,2,4]triazolo[1,5-a]pyridin-2-yl]amino]benzamide], which Ki is on record?
Answer: 0.58 nM

Question: For `O=C(NCCC1CCCNC1)c1ccc(Nc2nc3c(C4=CCN(C(=O)CCC(F)(F)F)CC4)cccn3n2)cc1` (stereo not drawn) [Example 2-193, N-[2-(3-piperidyl)ethyl]-4-[[8-[1-(4,4,4-trifluorobutanoyl)-3,6-dihydro-2H-pyridin-4-yl]-[1,2,4]triazolo[1,5-a]pyridin-2-yl]amino]benzamide], which Ki is on record?
Answer: 1.5 nM

Question: Which Ki does the source give for `NCCNC(=O)c1ccc(Nc2nc3c(C4=CCN(C(=O)CCC(F)(F)F)CC4)cccn3n2)cc1` [Example 2-194, N-(2-aminoethyl)-4-[[8-[1-(4,4,4-trifluorobutanoyl)-3,6-dihydro-2H-pyridin-4-yl]-[1,2,4]triazolo[1,5-a]pyridin-2-yl]amino]benzamide] here?
Answer: 1.54 nM

Question: Which Ki does the source give for `O=C(CCC(F)(F)F)N1CC=C(c2cccn3nc(Nc4ccc(C(=O)N5CCCNCC5)cc4)nc23)CC1` [Example 2-195, 1-[4-[2-[4-(1,4-diazepane-1-carbonyl)anilino]-[1,2,4]triazolo[1,5-a]pyridin-8-yl]-3,6-dihydro-2H-pyridin-1-yl]-4,4,4-trifluoro-butan-1-one] here?
Answer: 0.66 nM

Question: `CC1CN(C(=O)c2ccc(Nc3nc4c(C5=CCN(C(=O)CCC(F)(F)F)CC5)cccn4n3)cc2)CCN1` (stereo not drawn) [Example 2-196, 4,4,4-trifluoro-1-[4-[2-[4-(3-methylpiperazine-1-carbonyl)anilino]-[1,2,4]triazolo[1,5-a]pyridin-8-yl]-3,6-dihydro-2H-pyridin-1-yl]butan-1-one] was tested. Which Ki did it give?
Answer: 1.11 nM

Question: With `O=C(CCC(F)(F)F)N1CC=C(c2cccn3nc(Nc4ccc(C(=O)N5CCC6(CCN6)CC5)cc4)nc23)CC1` [Example 2-197, 1-[4-[2-[4-(1,7-diazaspiro[3.5]nonane-7-carbonyl)anilino]-[1,2,4]triazolo[1,5-a]pyridin-8-yl]-3,6-dihydro-2H-pyridin-1-yl]-4,4,4-trifluoro-butan-1-one] as the molecule, how does the Ki read?
Answer: 1.71 nM

Question: How did the Ki turn out when `O=C(CCC(F)(F)F)N1CC=C(c2cccn3nc(Nc4ccc(C(=O)N5CCC6(CCCN6)CC5)cc4)nc23)CC1` [Example 2-198, 1-[4-[2-[4-(1,8-diazaspiro[4.5]decane-8-carbonyl)anilino]-[1,2,4]triazolo[1,5-a]pyridin-8-yl]-3,6-dihydro-2H-pyridin-1-yl]-4,4,4-trifluoro-butan-1-one] was run?
Answer: 1.45 nM

Question: `CN(Cc1ccccn1)C(=O)c1ccc(Nc2nc3c(C4=CCN(C(=O)CCC(F)(F)F)CC4)cccn3n2)cc1` [Example 2-199, N-methyl-N-(2-pyridylmethyl)-4-[[8-[1-(4,4,4-trifluorobulanoyl)-3,6-dihydro-2H-pyridin-4-yl]-[1,2,4]triazolo[1,5-a]pyridin-2-yl]amino]benzamide] was tested. Which Ki did it give?
Answer: 1.04 nM

Question: `O=C(CCC(F)(F)F)N1CC=C(c2cccn3nc(Nc4ccc(C(=O)N5CCN6CCCC6C5)cc4)nc23)CC1` (stereo not drawn) [Example 2-200, 1-[4-[2-[4-(3,4,6,7,8,8a-hexahydro-1H-pyrrolo[1,2-a]pyrazine-2-carbonyl)anilino]-[1,2,4]triazolo[1,5-a]pyridin-8-yl]-3,6-dihydro-2H-pyridin-1-yl]-4,4,4-trifluoro-butan-1-one] was tested. Which Ki did it give?
Answer: 1.85 nM

Question: With `CN1CC2CC(C1)N(C(=O)c1ccc(Nc3nc4c(C5=CCN(C(=O)CCC(F)(F)F)CC5)cccn4n3)cc1)C2` (stereo not drawn) [Example 2-201, 4,4,4-trifluoro-1-[4-[2-[4-(3-methyl-3,6-diazabicyclo[3.2.1]octane-6-carbonyl)anilino]-[1,2,4]triazolo[1,5-a]pyridin-8-yl]-3,6-dihydro-2H-pyridin-1-yl]butan-1-one] as the molecule, how does the Ki read?
Answer: 1.86 nM

Question: With `O=C(CCC(F)(F)F)N1CC=C(c2cccn3nc(Nc4ccc(C(=O)N5CCN(C6CC6)CC5)cc4)nc23)CC1` [Example 2-202, 1-[4-[2-[4-(4-cyclopropylpiperazine-1-carbonyl)anilino]-[1,2,4]triazolo[1,5-a]pyridin-8-yl]-3,6-dihydro-2H-pyridin-1-yl]-4,4,4-trifluoro-butan-1-one] as the molecule, how does the Ki read?
Answer: 1.04 nM

Question: `Cn1ccnc1CN1CCN(C(=O)c2ccc(Nc3nc4c(C5=CCN(C(=O)CCC(F)(F)F)CC5)cccn4n3)cc2)CC1` [Example 2-203, 4,4,4-trifluoro-1-[4-[2-[4-[4-[(1-methylimidazol-2-yl)methyl]piperazine-1-carbonyl]anilino]-[1,2,4]triazolo[1,5-a]pyridin-8-yl]-3,6-dihydro-2H-pyridin-1-yl]butan-1-one] was tested. Which Ki did it give?
Answer: 1.52 nM

Question: How did the Ki turn out when `CC(=O)N1CC2(C1)CN(C(=O)c1ccc(Nc3nc4c(C5=CCN(C(=O)CCC(F)(F)F)CC5)cccn4n3)cc1)C2` [Example 2-204, 1-[4-[2-[4-(6-acetyl-2,6-diazaspiro[3.3]heptane-2-carbonyl)anilino]-[1,2,4]triazolo[1,5-a]pyridin-8-yl]-3,6-dihydro-2H-pyridin-1-yl]-4,4,4-trifluoro-butan-1-one] was run?
Answer: 0.56 nM

Question: Which Ki does the source give for `CN1CC2CN(C(=O)c3ccc(Nc4nc5c(C6=CCN(C(=O)CCC(F)(F)F)CC6)cccn5n4)cc3)CC(C1)O2` [Example 2-205, 4,4,4-trifluoro-1-[4-[2-[4-(7-methyl-9-oxa-3,7-diazabicyclo[3.3.1]nonane-3-carbonyl)anilino]-[1,2,4]triazolo[1,5-a]pyridin-8-yl]-3,6-dihydro-2H-pyridin-1-yl]butan-1-one] here?
Answer: 1.22 nM

Question: Which Ki does the source give for `Cc1cncc(CNC(=O)c2ccc(Nc3nc4c(C5=CCN(C(=O)CCC(F)(F)F)CC5)cccn4n3)cc2)c1` [Example 2-206, N-[(5-methyl-3-pyridyl)methyl]-4-[[8-[1-(4,4,4-trifluorobutanoyl)-3,6-dihydro-2H-pyridin-4-yl]-[1,2,4]triazolo[1,5-a]pyridin-2-yl]amino]benzamide] here?
Answer: 4.58 nM

Question: How did the Ki turn out when `NCC1CN(C(=O)c2ccc(Nc3nc4c(C5=CCN(C(=O)CCC(F)(F)F)CC5)cccn4n3)cc2)C1` [Example 2-207, 1-[4-[2-[4-[3-(aminomethyl)azetidine-1-carbonyl]anilino]-[1,2,4]triazolo[1,5-a]pyridin-8-yl]-3,6-dihydro-2H-pyridin-1-yl]-4,4,4-trifluoro-butan-1-one] was run?
Answer: 2.23 nM

Source: US9873709B2 (priority 2013, dated 2018)
